Publication PMC12820563
Some of the results follow. The list includes weakly bound sequences.

Each sequence was assayed against T1, MBP-FoxP3dN (UniProt Q99JB6) (assay: PD-seq (MBP pull-down with sequencing)). Conditions: 20 mM Tris-HCl pH 7.5, 100 mM NaCl, 1.5 mM MgCl2, 0.4 uM protein, 0.1 uM dsDNA library, 30 min, room temperature, amylose pull-down; high values mean tight binding; double strand, one strand shown.
T1 sequence: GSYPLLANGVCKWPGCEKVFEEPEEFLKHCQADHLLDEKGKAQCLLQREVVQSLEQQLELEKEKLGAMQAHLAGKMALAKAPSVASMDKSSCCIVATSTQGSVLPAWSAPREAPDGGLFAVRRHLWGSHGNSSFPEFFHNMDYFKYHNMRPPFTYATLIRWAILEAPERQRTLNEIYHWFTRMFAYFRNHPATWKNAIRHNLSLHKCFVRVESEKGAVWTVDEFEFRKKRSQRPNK

| Sequence | binding signal (RPM ratio (pull-down/input)) |
| --- | --- |
| GATGATTGTTCTCCCAGCTGATGAATTTAATTGTTCGAGTAAACAAATTTTCCTAATCTTTCTGTTCAAGCGCCATCTAC | 4.55 |
| GATGATTGTTCTCCCAGCTGATGAATTGGAGGAGTCGAGTAAACAAATTTTCCTAATCTTTCTGTTCAAGCGCCATCTAC | 0.208 |
| GATGATTGTTCTCCCAGCTGATGAATTATTTGCGTCGAGTAAACAAATTTTCCTAATCTTTCTGTTCAAGCGCCATCTAC | 2.03 |
| GATGATTGTTCTCCCAGCTGATGAATTCGAAGCCTCGAGTAAACAAATTTTCCTAATCTTTCTGTTCAAGCGCCATCTAC | 0.363 |
| GATGATTGTTCTCCCAGCTGATGAATTATACCTCTCGAGTAAACAAATTTTCCTAATCTTTCTGTTCAAGCGCCATCTAC | 0.525 |
| GATGATTGTTCTCCCAGCTGATGAATTTGCTCACTCGAGTAAACAAATTTTCCTAATCTTTCTGTTCAAGCGCCATCTAC | 0.507 |
| GATGATTGTTCTCCCAGCTGATGAATTCAAACTTTCGAGTAAACAAATTTTCCTAATCTTTCTGTTCAAGCGCCATCTAC | 0.408 |
| GATGATTGTTCTCCCAGCTGATGAATTGGTATCATCGAGTAAACAAATTTTCCTAATCTTTCTGTTCAAGCGCCATCTAC | 1.44 |
| GATGATTGTTCTCCCAGCTGATGAATTATGCATTTCGAGTAAACAAATTTTCCTAATCTTTCTGTTCAAGCGCCATCTAC | 7.25 |
| GATGATTGTTCTCCCAGCTGATGAATTCAACGAATCGAGTAAACAAATTTTCCTAATCTTTCTGTTCAAGCGCCATCTAC | 0.244 |
| GATGATTGTTCTCCCAGCTGATGAATTCGCACTATCGAGTAAACAAATTTTCCTAATCTTTCTGTTCAAGCGCCATCTAC | 0.526 |
| GATGATTGTTCTCCCAGCTGATGAATTATTCTTATCGAGTAAACAAATTTTCCTAATCTTTCTGTTCAAGCGCCATCTAC | 0.33 |
| GATGATTGTTCTCCCAGCTGATGAATTCCGGCCCTCGAGTAAACAAATTTTCCTAATCTTTCTGTTCAAGCGCCATCTAC | 0.341 |
| GATGATTGTTCTCCCAGCTGATGAATTACTCAGGTCGAGTAAACAAATTTTCCTAATCTTTCTGTTCAAGCGCCATCTAC | 0.22 |
| GATGATTGTTCTCCCAGCTGATGAATTTTAATCCTCGAGTAAACAAATTTTCCTAATCTTTCTGTTCAAGCGCCATCTAC | 0.333 |
| GATGATTGTTCTCCCAGCTGATGAATTAGTTATGTCGAGTAAACAAATTTTCCTAATCTTTCTGTTCAAGCGCCATCTAC | 3.79 |
| GATGATTGTTCTCCCAGCTGATGAATTCGAGAATTCGAGTAAACAAATTTTCCTAATCTTTCTGTTCAAGCGCCATCTAC | 0.642 |
| GATGATTGTTCTCCCAGCTGATGAATTTTAACTATCGAGTAAACAAATTTTCCTAATCTTTCTGTTCAAGCGCCATCTAC | 0.485 |
| GATGATTGTTCTCCCAGCTGATGAATTTCATAGGTCGAGTAAACAAATTTTCCTAATCTTTCTGTTCAAGCGCCATCTAC | 0.343 |
| GATGATTGTTCTCCCAGCTGATGAATTCTCAGGGTCGAGTAAACAAATTTTCCTAATCTTTCTGTTCAAGCGCCATCTAC | 0.155 |
| GATGATTGTTCTCCCAGCTGATGAATTGGGTAAGTCGAGTAAACAAATTTTCCTAATCTTTCTGTTCAAGCGCCATCTAC | 0.303 |

| Sequence | binding signal (RPM ratio (pull-down/input)) |
| --- | --- |
| GATGATTGTTCTCCCAGCTGATGAATTCACCAAGTCGAGTAAACAAATTTTCCTAATCTTTCTGTTCAAGCGCCATCTAC | 0.173 |
| GATGATTGTTCTCCCAGCTGATGAATTTACTGCTTCGAGTAAACAAATTTTCCTAATCTTTCTGTTCAAGCGCCATCTAC | 0.692 |
| GATGATTGTTCTCCCAGCTGATGAATTAATCATTTCGAGTAAACAAATTTTCCTAATCTTTCTGTTCAAGCGCCATCTAC | 0.933 |
| GATGATTGTTCTCCCAGCTGATGAATTGACTCAATCGAGTAAACAAATTTTCCTAATCTTTCTGTTCAAGCGCCATCTAC | 0.336 |
| GATGATTGTTCTCCCAGCTGATGAATTAAAGTTATCGAGTAAACAAATTTTCCTAATCTTTCTGTTCAAGCGCCATCTAC | 0.678 |
| GATGATTGTTCTCCCAGCTGATGAATTAATTACATCGAGTAAACAAATTTTCCTAATCTTTCTGTTCAAGCGCCATCTAC | 0.851 |
| GATGATTGTTCTCCCAGCTGATGAATTTAAGCCATCGAGTAAACAAATTTTCCTAATCTTTCTGTTCAAGCGCCATCTAC | 1.47 |
| GATGATTGTTCTCCCAGCTGATGAATTATTGTCATCGAGTAAACAAATTTTCCTAATCTTTCTGTTCAAGCGCCATCTAC | 1.71 |
| GATGATTGTTCTCCCAGCTGATGAATTCACTCATTCGAGTAAACAAATTTTCCTAATCTTTCTGTTCAAGCGCCATCTAC | 0.414 |
| GATGATTGTTCTCCCAGCTGATGAATTCAACGTCTCGAGTAAACAAATTTTCCTAATCTTTCTGTTCAAGCGCCATCTAC | 0.525 |
| GATGATTGTTCTCCCAGCTGATGAATTACGGGTCTCGAGTAAACAAATTTTCCTAATCTTTCTGTTCAAGCGCCATCTAC | 0.747 |
| GATGATTGTTCTCCCAGCTGATGAATTGAATACATCGAGTAAACAAATTTTCCTAATCTTTCTGTTCAAGCGCCATCTAC | 0.741 |
| GATGATTGTTCTCCCAGCTGATGAATTGCTTATCTCGAGTAAACAAATTTTCCTAATCTTTCTGTTCAAGCGCCATCTAC | 2.09 |
| GATGATTGTTCTCCCAGCTGATGAATTGGGAGTTTCGAGTAAACAAATTTTCCTAATCTTTCTGTTCAAGCGCCATCTAC | 0.781 |
| GATGATTGTTCTCCCAGCTGATGAATTTGCGGCATCGAGTAAACAAATTTTCCTAATCTTTCTGTTCAAGCGCCATCTAC | 1.14 |
| GATGATTGTTCTCCCAGCTGATGAATTCGCGTCTTCGAGTAAACAAATTTTCCTAATCTTTCTGTTCAAGCGCCATCTAC | 1.09 |
| GATGATTGTTCTCCCAGCTGATGAATTGGTGGTTTCGAGTAAACAAATTTTCCTAATCTTTCTGTTCAAGCGCCATCTAC | 1.44 |
| GATGATTGTTCTCCCAGCTGATGAATTCAGCAATTCGAGTAAACAAATTTTCCTAATCTTTCTGTTCAAGCGCCATCTAC | 3.74 |
| GATGATTGTTCTCCCAGCTGATGAATTACTAGCGTCGAGTAAACAAATTTTCCTAATCTTTCTGTTCAAGCGCCATCTAC | 0.483 |
| GATGATTGTTCTCCCAGCTGATGAATTTCACCTTTCGAGTAAACAAATTTTCCTAATCTTTCTGTTCAAGCGCCATCTAC | 0.378 |
| GATGATTGTTCTCCCAGCTGATGAATTAAGCCGCTCGAGTAAACAAATTTTCCTAATCTTTCTGTTCAAGCGCCATCTAC | 1.21 |

| Sequence | binding signal (RPM ratio (pull-down/input)) |
| --- | --- |
| GATGATTGTTCTCCCAGCTGATGAATTAGGTGATTCGAGTAAACAAATTTTCCTAATCTTTCTGTTCAAGCGCCATCTAC | 1.13 |
| GATGATTGTTCTCCCAGCTGATGAATTTCGACCCTCGAGTAAACAAATTTTCCTAATCTTTCTGTTCAAGCGCCATCTAC | 0.44 |
| GATGATTGTTCTCCCAGCTGATGAATTCAAAGCTTCGAGTAAACAAATTTTCCTAATCTTTCTGTTCAAGCGCCATCTAC | 0.295 |
| GATGATTGTTCTCCCAGCTGATGAATTCTGACGTTCGAGTAAACAAATTTTCCTAATCTTTCTGTTCAAGCGCCATCTAC | 0.686 |
| GATGATTGTTCTCCCAGCTGATGAATTTGAAGTTTCGAGTAAACAAATTTTCCTAATCTTTCTGTTCAAGCGCCATCTAC | 0.401 |
| GATGATTGTTCTCCCAGCTGATGAATTCCAGGCTTCGAGTAAACAAATTTTCCTAATCTTTCTGTTCAAGCGCCATCTAC | 0.321 |
| GATGATTGTTCTCCCAGCTGATGAATTACGATCATCGAGTAAACAAATTTTCCTAATCTTTCTGTTCAAGCGCCATCTAC | 0.571 |
| GATGATTGTTCTCCCAGCTGATGAATTGTTGCCCTCGAGTAAACAAATTTTCCTAATCTTTCTGTTCAAGCGCCATCTAC | 2.42 |
| GATGATTGTTCTCCCAGCTGATGAATTGCTAGCGTCGAGTAAACAAATTTTCCTAATCTTTCTGTTCAAGCGCCATCTAC | 0.81 |
| GATGATTGTTCTCCCAGCTGATGAATTGCGGATGTCGAGTAAACAAATTTTCCTAATCTTTCTGTTCAAGCGCCATCTAC | 0.793 |
| GATGATTGTTCTCCCAGCTGATGAATTACCCTGCTCGAGTAAACAAATTTTCCTAATCTTTCTGTTCAAGCGCCATCTAC | 0.272 |
| GATGATTGTTCTCCCAGCTGATGAATTTAGCTATTCGAGTAAACAAATTTTCCTAATCTTTCTGTTCAAGCGCCATCTAC | 2.49 |
| GATGATTGTTCTCCCAGCTGATGAATTAGTCATCTCGAGTAAACAAATTTTCCTAATCTTTCTGTTCAAGCGCCATCTAC | 2.33 |
| GATGATTGTTCTCCCAGCTGATGAATTAGGCCACTCGAGTAAACAAATTTTCCTAATCTTTCTGTTCAAGCGCCATCTAC | 4.87 |
| GATGATTGTTCTCCCAGCTGATGAATTTGCTTTTTCGAGTAAACAAATTTTCCTAATCTTTCTGTTCAAGCGCCATCTAC | 5.38 |
| GATGATTGTTCTCCCAGCTGATGAATTTCGAATTTCGAGTAAACAAATTTTCCTAATCTTTCTGTTCAAGCGCCATCTAC | 1.24 |
| GATGATTGTTCTCCCAGCTGATGAATTCGCAGTGTCGAGTAAACAAATTTTCCTAATCTTTCTGTTCAAGCGCCATCTAC | 0.747 |
| GATGATTGTTCTCCCAGCTGATGAATTAGAAGCTTCGAGTAAACAAATTTTCCTAATCTTTCTGTTCAAGCGCCATCTAC | 0.31 |
| GATGATTGTTCTCCCAGCTGATGAATTCTACCCCTCGAGTAAACAAATTTTCCTAATCTTTCTGTTCAAGCGCCATCTAC | 0.269 |
| GATGATTGTTCTCCCAGCTGATGAATTCCAGCCTTCGAGTAAACAAATTTTCCTAATCTTTCTGTTCAAGCGCCATCTAC | 1.42 |
| GATGATTGTTCTCCCAGCTGATGAATTTACCTATTCGAGTAAACAAATTTTCCTAATCTTTCTGTTCAAGCGCCATCTAC | 0.591 |
